The whole screen tested about 3,200 compounds, of which about 75 (2%) showed an effect of 50% or more. The list shows a part of the results.
test system: T1, S. aureus MSSA476; parameters: species or system S. aureus MSSA476 (TSB) or V. cholerae SAD30 (LB); 384-well bacterial growth screen at 25 uM, OD600 relative to DMSO control; settings: relative growth, OD600, TSB; 25 µM; inhibitor
T1 construct: MSSA476

Structure (SMILES)	% of control remaining
CCc1ccc(C(NC(=O)CCl)c2cccc(F)c2)cc1 (stereo not drawn) [4-C20, 2-chloro-N-[(4-ethylphenyl)(3-fluorophenyl)methyl]acetamide]	149.786%
O=C(CCl)NCc1ccccc1CN1CCCC1=O [6-K14, 2-chloro-N-({2-[(2-oxopyrrolidin-1-yl)methyl]phenyl}methyl)acetamide]	106.878%
O=C(CCl)NC(C1CC1)C1CC1 [6-C22, 2-chloro-N-(dicyclopropylmethyl)acetamide]	91.5122%
CC(Cl)C(=O)NCCC1(CO)CC1 (stereo not drawn) [7-H19, 2-chloro-N-{2-[1-(hydroxymethyl)cyclopropyl]ethyl}propanamide]	90.1099%
C=CC(=O)NCc1cn(-c2ccccc2)nn1 [2-I13, N-[(1-phenyl-1H-1,2,3-triazol-4-yl)methyl]prop-2-enamide]	109.661%
Cc1cc(C=C(C#N)C(=O)Nc2ccccn2)c(C)n1CC(C)C [9-J21, 2-cyano-3-[2,5-dimethyl-1-(2-methylpropyl)-1H-pyrrol-3-yl]-N-(pyridin-2-yl)prop-2-enamide]	77.9026%
C=CC(=O)NCCc1nccs1 [3-M20, N-[2-(1,3-thiazol-2-yl)ethyl]prop-2-enamide]	95.4288%
C=CC(=O)NC1CC(C2CCCCC2)C1 (stereo not drawn) [1-D10, N-(3-cyclohexylcyclobutyl)prop-2-enamide]	105.495%
COc1ccccc1CNC(=O)C(C)Cl (stereo not drawn) [5-M21, 2-chloro-N-[(2-methoxyphenyl)methyl]propanamide]	93.9891%
Cc1cccc(NC(=O)C(C#N)=Cc2cc(C)c(C)cc2C)c1 [8-C18, 2-cyano-N-(3-methylphenyl)-3-(2,4,5-trimethylphenyl)prop-2-enamide]	119.834%
CN(Cc1cc(-c2ccccc2)[nH]n1)C(=O)CCl [5-D15, 2-chloro-N-methyl-N-[(5-phenyl-1H-pyrazol-3-yl)methyl]acetamide]	126.412%
CN(c1ccccc1)S(=O)(=O)c1cccc(NC(=O)CCl)c1 [4-H04, 2-chloro-N-{3-[methyl(phenyl)sulfamoyl]phenyl}acetamide]	90.3287%
COCc1ccc(CNC(=O)CCl)cc1 [6-O22, 2-chloro-N-{[4-(methoxymethyl)phenyl]methyl}acetamide]	106.195%
C=CC(=O)N1CCC(C(=O)Nc2ccn(Cc3ccccn3)n2)CC1 [3-B07, 1-(prop-2-enoyl)-N-{1-[(pyridin-2-yl)methyl]-1H-pyrazol-3-yl}piperidine-4-carboxamide]	115.629%
O=C(CCl)N(Cc1cc(F)ccc1F)CC1CCOCC1 [5-P03, 2-chloro-N-[(2,5-difluorophenyl)methyl]-N-[(oxan-4-yl)methyl]acetamide]	95.4463%
CC(=O)N(C)c1cccc(NC(=O)C(C#N)=Cc2ccco2)c1 [9-L18, 2-cyano-3-(furan-2-yl)-N-[3-(N-methylacetamido)phenyl]prop-2-enamide]	94.6816%
C=CC(=O)NCc1ccc(C(=O)N2CCCC23CCOC3=O)cc1 (stereo not drawn) [3-I06, N-[(4-{6-oxo-7-oxa-1-azaspiro[4.4]nonane-1-carbonyl}phenyl)methyl]prop-2-enamide]	101.698%
Cc1cccc(Cl)c1CCCNC(=O)CCl [7-F04, 2-chloro-N-[3-(2-chloro-6-methylphenyl)propyl]acetamide]	69.3878%
Cc1cc(C(=O)CCl)c(C)n1C(C)c1ccccc1 (stereo not drawn) [10-P17, 2-chloro-1-[2,5-dimethyl-1-(1-phenylethyl)-1H-pyrrol-3-yl]ethan-1-one]	101.563%
CC(Cl)C(=O)Nc1ccc(-c2c[nH]cn2)cc1 (stereo not drawn) [5-F08, 2-chloro-N-[4-(1H-imidazol-4-yl)phenyl]propanamide]	92.5319%
N#Cc1cccc(C(NC(=O)CCl)C(F)(F)F)c1 (stereo not drawn) [7-N04, 2-chloro-N-[1-(3-cyanophenyl)-2,2,2-trifluoroethyl]acetamide]	114.286%
O=C(CCl)Nc1cc(S(=O)(=O)N2CCOCC2)ccc1Cl [6-H03, 2-chloro-N-[2-chloro-5-(morpholine-4-sulfonyl)phenyl]acetamide]	86.3902%
COc1ccc([N+](=O)[O-])cc1NC(=O)C(C)Cl (stereo not drawn) [5-N14, 2-chloro-N-(2-methoxy-5-nitrophenyl)propanamide]	112.933%

Structure (SMILES)	% of control remaining
O=C(CCl)Nc1ccc(S(=O)(=O)N2CCCC2)cc1 [4-F08, 2-chloro-N-[4-(pyrrolidine-1-sulfonyl)phenyl]acetamide]	96.0457%
N#CC(=Cc1ccc(OC(F)F)cc1)C(=O)Nc1cccnc1 [9-K04, 2-cyano-3-[4-(difluoromethoxy)phenyl]-N-(pyridin-3-yl)prop-2-enamide]	118.052%
Cl.O=C(CCl)Nc1ncc[nH]1 [6-B03, 2-chloro-N-(1H-imidazol-2-yl)acetamide hydrochloride]	78.1951%
CC(C)NC(=O)C(C#N)=Cc1ccc(Cl)c([N+](=O)[O-])c1 [8-J08, 3-(4-chloro-3-nitrophenyl)-2-cyano-N-(propan-2-yl)prop-2-enamide]	107.552%
Cc1cc(C(=O)CCl)c(C)n1-c1ccc(OC(F)(F)F)cc1 [10-G04, 2-chloro-1-{2,5-dimethyl-1-[4-(trifluoromethoxy)phenyl]-1H-pyrrol-3-yl}ethan-1-one]	115.313%
C=CC(=O)NC1COC(C)C1 (stereo not drawn) [1-H17, N-(5-methyloxolan-3-yl)prop-2-enamide]	103.033%
C=CC(=O)N1CCC(C(=O)N2CCC(Cc3ncon3)CC2)CC1 [2-J06, 1-(4-{4-[(1,2,4-oxadiazol-3-yl)methyl]piperidine-1-carbonyl}piperidin-1-yl)prop-2-en-1-one]	107.224%
CC(Cl)C(=O)N(Cc1cnn(C)c1)c1ccc(F)cc1 (stereo not drawn) [6-P11, 2-chloro-N-(4-fluorophenyl)-N-[(1-methyl-1H-pyrazol-4-yl)methyl]propanamide]	97.6585%
C=CC(=O)N1CCC(c2ncc(C(=O)O)o2)CC1 [2-G19, 2-[1-(prop-2-enoyl)piperidin-4-yl]-1,3-oxazole-5-carboxylic acid]	116.275%
COc1cccc(NC(=O)C(C#N)=Cc2ccc(C#N)cc2)c1 [8-G18, 2-cyano-3-(4-cyanophenyl)-N-(3-methoxyphenyl)prop-2-enamide]	118.174%
C=CC(=O)Nc1ccc(C(=O)N2CCC(C(C)C)CC2)cc1 [3-B15, N-{4-[4-(propan-2-yl)piperidine-1-carbonyl]phenyl}prop-2-enamide]	142.447%
N#CC(=Cc1cccc2ccccc12)C(=O)NC1CC1 [9-O03, 2-cyano-N-cyclopropyl-3-(naphthalen-1-yl)prop-2-enamide]	109.064%
C=CC(=O)N[C@@H](C)c1ccccc1OC [1-K06, N-[(1S)-1-(2-methoxyphenyl)ethyl]prop-2-enamide]	106.549%
Cc1cn2c(C=C(C#N)C(=O)Nc3c(C)cccc3C)c(C)nc2s1 [9-N19, 2-cyano-3-{2,6-dimethylimidazo[2,1-b][1,3]thiazol-5-yl}-N-(2,6-dimethylphenyl)prop-2-enamide]	91.985%
CC(C)(C)c1ccc(C=C(C#N)C(=O)Nc2ccc(C(=O)O)cc2)cc1 [9-I21, 4-[3-(4-tert-butylphenyl)-2-cyanoprop-2-enamido]benzoic acid]	71.6105%
CC1=C(C#N)C(=O)N(C)C(=O)C1=Cc1ccc(-c2ccc(F)cc2)o1 [9-I18, 5-{[5-(4-fluorophenyl)furan-2-yl]methylidene}-1,4-dimethyl-2,6-dioxo-1,2,5,6-tetrahydropyridine-3-carbonitrile]	83.2959%
CC(Cl)C(=O)N1CCCC1Cc1cccc(F)c1F (stereo not drawn) [7-E19, 2-chloro-1-{2-[(2,3-difluorophenyl)methyl]pyrrolidin-1-yl}propan-1-one]	108.948%
CC(Cl)C(=O)N[C@H]1CCO[C@@H]1c1nccn1-c1ccccc1 (mixture of isomers) [7-A12, rac-2-chloro-N-[(2R,3R)-2-(1-phenyl-1H-imidazol-2-yl)oxolan-3-yl]propanamide]	87.5981%
C=CC(=O)Nc1ccccc1CCC(N)=O [1-A18, N-[2-(2-carbamoylethyl)phenyl]prop-2-enamide]	117.099%
CC(Cl)C(=O)N1CCN(C(=O)CN2C(=O)CCC2=O)CC1 (stereo not drawn) [6-B11, 1-{2-[4-(2-chloropropanoyl)piperazin-1-yl]-2-oxoethyl}pyrrolidine-2,5-dione]	89.8049%
CCOc1ccccc1NC(=O)C(C#N)=Cc1c(F)cccc1F [8-G21, 2-cyano-3-(2,6-difluorophenyl)-N-(2-ethoxyphenyl)prop-2-enamide]	69.3776%
COCC(C)NC(=O)C(C#N)=Cc1cccc(F)c1F (stereo not drawn) [9-F09, 2-cyano-3-(2,3-difluorophenyl)-N-(1-methoxypropan-2-yl)prop-2-enamide]	101.873%
